{"source": "paper PMC9039177", "about": "(Frontiers in Chemistry, 2022)"}
{"details": "37°C, up to 6 h, absence of BNPP", "method": "Compound stability in mouse plasma was assessed in the absence and presence of 500 µM bis-para-nitrophenyl phosphate (BNPP), a known carboxylesterase inhibitor ([Eng et al., 2010]). Compound was spiked into blank mouse plasma (that had been pre-equilibrated with blank solvent or 500 µM BNPP at 37°C for 1 h) and maintained at 37°C under a humidified CO2-enriched (2%) atmosphere for pH control. Samples were collected at 0, 2, 4 and 6 h (n = 2 aliquots per time point) and snap frozen on dry ice and stored at -80°C until analysis by LC/MS."}
{"smiles": "C[C@H](c1cccc2ccccc12)N1CCC(C(=O)NCc2cccc(F)c2)CC1", "note": "[Compound 3k]", "hydrolysis in mouse plasma": "highly susceptible to hydrolysis in mouse plasma"}
{"smiles": "COc1cc(CNC(=O)C2CCN([C@H](C)c3cccc4ccccc34)CC2)ccn1", "note": "[Compound 5c]", "hydrolysis in mouse plasma": "Plasma-mediated hydrolysis was also evident"}
{"smiles": "COc1cc(CNC(=O)C2CCN(C(C)c3ccc(OC)c4ccccc34)CC2)ccn1", "note": "(stereo not drawn) [Compound 9, 1-[1-(4-methoxynaphthalen-1-yl)ethyl]-N-[(2-methoxypyridin-4-yl)methyl]piperidine-4-carboxamide]", "hydrolysis in mouse plasma": "not detected"}
